Self-cleavage data for 167 variants are collected here from the RNAGym collection of RNA variant scans (doi:10.7554/elife.90254).

B1: LINE1-full (parent)
chain: UACGUAGGUGGUUUUCCCCUGAUAGUGCUAAGGGGGCCUGGAAGUUUGGACUGGGCAGAGCUCAACACAGCGUGGCAAAGUGGCUGUGGCUAGACUGCCUCUCUGGAUUCCUCGUCACUCAGCAGGGCAUCUCUGAGAGAAAUGCC

The source gives no read counts; variants with many changes may rest on few reads.

Variants of B1 are the subject of this data set. Nature of the data set: self-cleavage, relative activity (ratio to wild type); higher = more cleavage; in vitro, sequencing; the parent is a self-cleaving ribozyme.
Consider U29G U62C U112A, for which the self-cleavage is 0.09. As to U26C A129U A141G, the self-cleavage came to 0.64. As to A2G U73C A124G, the self-cleavage turned out to be 0.77. With U15C U26C U62C G135A, the self-cleavage is 0. On to U13A U81C U87G U143A, for which the self-cleavage amounted to 0. The same measure for U47C G55U C84U U134C: 0.05; for C37U A43G A77U: 0.72; for U20C U23C C28G U104A: 1.1. With U39C A59G A65G, the self-cleavage was determined as 0. With A92G A129G A141G, the self-cleavage is 0.03. The same measure for A6U A107G A121U: 0.74; for A65U G89A U96A: 0.03; for U26C U46G C116U: 1.3.

With G32U A67G U91C U112A, the self-cleavage came to 0.12. The same measure for U62C U119C A121G U134C: 0.6; for G36A U73A A107U: 1.44. For the variant A24U G34A A138G C146A, the self-cleavage is 1.51.

For the variant U14C U39G U73A, the self-cleavage was found to be 1.68. The value for C19U A30G U47G G114A was 1.4; that for A124G U134A A142U was 0.61. The value for C116A A117G A121G was 1.04; that for U14C A50G U143C was 0.15. Consider A67G A78G U85C, for which the self-cleavage was 0.16. For A42C U46A U62C, the self-cleavage came out at 0.11. On to A107G U108A A129G, for which the self-cleavage stood at 0.37. On to A43G U85C A117U, for which the self-cleavage came out at 0.11. The same measure for U15A C56A C61G U62G G93U A140G: 0.07; for U12A U47C G54A: 1.87. Take C116A U132C U143A: the self-cleavage was 0.9. Consider G88A U100C A142G, for which the self-cleavage was determined as 0.04. The same measure for A2C A59G U112C A129G: 0. With G27A A78U A124G, the self-cleavage is 0.84. Take A6U C28U A43G U104A: the self-cleavage turned out to be 0.6. For U15C G70U A121G U130C A138G, the self-cleavage is 0.06. Turning to U45A A50U U115A A138G, the self-cleavage turned out to be 1.06. As to U14C A94G G127C, the self-cleavage was 0.37. The same measure for U14C G34U A69G A138G: 0.97; for A42G A124U U130C U143C: 2.43. For A42G A57G A65G, the self-cleavage came to 0. For the variant G33U U96C A121U, the self-cleavage is 0.1. On to U23C A64C A77U, for which the self-cleavage came to 0.48. For U9C U96A U112C A142G, the self-cleavage amounted to 0. In the case of G70A U96C A136U, the self-cleavage is 0.03. As to A43G U45C U52G, the self-cleavage turned out to be 0.92. For A65U A107G A136U A140U, the self-cleavage came out at 0.19. As for U15C U91C G135A, the self-cleavage turned out to be 0.35. As to U39G U46C C116U U130C, the self-cleavage came out at 1.92. Consider G35A A43G U143C G144A, for which the self-cleavage was found to be 0.85.

In the case of A42G U73A A140G, the self-cleavage stood at 1.18. On to A42G U45C U46C G48A U96C, for which the self-cleavage was 0. U9C U13C G32A: the self-cleavage was 1.25. For G34U A64G A107G, the self-cleavage stood at 0.24. U20C A77G U130C: the self-cleavage was found to be 2.63. The same measure for A42U U109A A117U: 1.74; for A42U U52A G82A: 1.58; for A24G U85C U100A: 0.14. For A77G U108G U115A, the self-cleavage was determined as 2.76. With A78G A124G U134A, the self-cleavage was determined as 0.37. U1C U13A U26A U100C U130C U132A: the self-cleavage was 0.

Regarding G36U A136G A141G, the self-cleavage is 1. For the variant U39C A59G A67G, the self-cleavage was 0.16. G53A A124U A138G: the self-cleavage was found to be 1.52. On to U9C A64G U102C A140G, for which the self-cleavage came out at 1.06. As to A31U A57G C113U A124G, the self-cleavage came out at 1.08. In the case of U13A U109C G135U, the self-cleavage is 0.79. As for U47A G48A U62C C98A A138G, the self-cleavage was 0.02.

Turning to A6C U62C A67G U119A, the self-cleavage is 0.

Regarding U5A A69U A121G, the self-cleavage turned out to be 0.18. On to U20C A124U U134C, for which the self-cleavage is 2.03.

As to U12C G35A A69G U81C C131A, the self-cleavage is 1.17. The value for A59U A69G A78G U112A A124G was 0. The value for U29C U46C C84A U115C A138G was 0.23; that for A22G A31G G93U U96C A142G was 0.21. For the variant U20G A77U U104C, the self-cleavage turned out to be 2.51.

Take U100C U109C A140U: the self-cleavage was 2.41.

In the case of A79G U85A U130C, the self-cleavage came out at 0.17. The same measure for U9C U26C U132C A136G U143C: 1.72. For the variant A30U A42G U134C, the self-cleavage turned out to be 1.67. Take U13C A79G A138G: the self-cleavage was 1.9. U119C A124G U134C: the self-cleavage stood at 1.21. For G35A U62C A140G, the self-cleavage turned out to be 0.02. As to U13C G97U G114A A136G A142G, the self-cleavage stood at 0.05. Consider C37U A42U G72A A129G, for which the self-cleavage worked out at 2.3. Turning to U20C U47A U73C U96C A142G, the self-cleavage was found to be 0.41. U13C A69G C95A: the self-cleavage is 0.06. Take U14A U20A A136G: the self-cleavage is 1.29. On to U12A U23C A57G U96C, for which the self-cleavage was 0.84.

With U23A C38U U73C A124U, the self-cleavage is 1.98. The value for A22G G27A A50G was 0.66.

Turning to U15C U20C U39A A141G, the self-cleavage was 1.17. The value for U15A A24G A129G was 0.63; that for U14C U45C G53U was 1.21. On to C71U U73C U96C A129U, for which the self-cleavage was 0.05. Consider U47C U87C A138G A141U, for which the self-cleavage is 0.39.

U91C U130C U143C: the self-cleavage is 2.21. For U134C G135C A136U, the self-cleavage was 0.77. Take U1C U73A A78G: the self-cleavage amounted to 0.25.

For U13C U29G G35C, the self-cleavage is 1.17. For the variant U15A A30U U115A, the self-cleavage was found to be 1.31.

For the variant A30U G80A U115C U130C, the self-cleavage was found to be 2.88. The same measure for U12C A43G U96A A117G: 0.14; for G41C A78G U91A U100C: 0.64; for A43G G54A U96C: 0.06. For A24G A65G U73A, the self-cleavage came out at 0.03. On to U23G G36A A69U A141G, for which the self-cleavage came out at 0.04. Regarding G7A U20C A65G C90U U104A, the self-cleavage is 0.27. Regarding U15C C19U A42G U45C A59G U108C, the self-cleavage turned out to be 0. For U1C U47A A140G, the self-cleavage is 0.65. Take C37U U73C U119C: the self-cleavage was found to be 1.7. With A59G A79G C101A U104A U109C, the self-cleavage was 0.05. The same measure for A78U U87C U96C U130C: 0. The value for U13C G88U A124C was 0.2; that for A64G G89U U143A was 0.03; that for A2G A42G U73C A141U was 1.41. Consider A77G A79G U96C C98A U115A G127A, for which the self-cleavage turned out to be 0.04. Take A77U G97A A129G A136U: the self-cleavage is 0.09.

For the variant U108C U132C A136G U143C, the self-cleavage amounted to 2.45. Consider U46C A57U U134C A138G, for which the self-cleavage worked out at 0.17. In the case of U47C A136G A141G, the self-cleavage amounted to 1.62. Turning to U15C U45C U100A U112C, the self-cleavage came out at 1.24. Regarding U1C U9A C18U A136G, the self-cleavage stood at 0.55. The same measure for A2G A6G A22G U119C U134C: 0; for C3A G21A A57U: 0.09. The value for U12C C19U U104C was 0.77; that for A69G U87C G97A A117G was 0; that for U23A U62C A78G U115C was 0. Take U9C A42G U85C: the self-cleavage amounted to 0.6.

Take A30G A43G U47C C56U U87A U132C A140G: the self-cleavage amounted to 0. As for U46A A64C A117U A121U A129G, the self-cleavage was 0.33. Regarding U12C G35A U85C, the self-cleavage is 0.12. Regarding U20C A69G A140G, the self-cleavage turned out to be 0.75.

Turning to U45G U85A U108C, the self-cleavage worked out at 0.21. The same measure for U52C A59G A136G: 0.05; for C38U G137U U143C: 1.02; for A6G U96C A107G A117U C131G: 0.54. A6G G88A U108G A124U: the self-cleavage came to 0.13. In the case of G8A U20A U52A G74U U134A, the self-cleavage stood at 1.15.

Take U20C U26A A69G G82U: the self-cleavage worked out at 0.35. On to G86A A121U A142G, for which the self-cleavage was 0.08. Regarding U5C U39C U134A, the self-cleavage was 0.

On to U52C A65G A121U A124G, for which the self-cleavage came to 0. On to U14C G33U G127A, for which the self-cleavage is 1.32.

On to U12C G33U U39C U62C U109A A141G, for which the self-cleavage was 0.05. For A6G U14A A31G A94G A141G, the self-cleavage amounted to 0.18.

On to U13C U29A A92G C99U U104A U109C, for which the self-cleavage amounted to 0. Take U5C A6G U73C A140G: the self-cleavage is 0. For U13C U45C A69G, the self-cleavage was found to be 0.63.

As to U9C A42U A129G, the self-cleavage was 1.54. Turning to U45C A64C U109C U115A A142G, the self-cleavage came to 0. As to U9C A79G U85C U104C A140U, the self-cleavage amounted to 0.

Consider U9C A77G U109C, for which the self-cleavage came to 2.94. The value for U45A U85A U87A U102C was 0.16; that for U13C U47C A64G was 0. For the variant U13A A77U U85C, the self-cleavage was determined as 0.11. As to U1C U46C U108C A140G, the self-cleavage worked out at 0.92. U9C A65G U73A U108C: the self-cleavage amounted to 0. The value for A22U A136G A141G was 2.45; that for U39C U45C A77U was 1.04; that for A42G G89A U108C was 0.06.

Turning to A31U U85C A129U, the self-cleavage is 0.48. In the case of U45A U132C A136U, the self-cleavage turned out to be 1.15.

For the variant U1C U9C U26C U87C A138G, the self-cleavage worked out at 0. U9A U12C A22U U85A U102C: the self-cleavage stood at 0.3.

Turning to U46A A79G U132A, the self-cleavage is 1.25. For the variant G54A A79G A136G, the self-cleavage was 0.63. Consider A79G U115A U132C, for which the self-cleavage is 1.25. Take U52G G127A U143C: the self-cleavage stood at 1.42.
